Measured values published in publication PMC4336329 (PLoS ONE, 2015).
About 14,000 (4.5%) of roughly 310,000 compounds showed an effect of 50% or more. The effect is printed as a negative number. The list shows a part of the results.

Target: human ether-à-go-go-related gene (hERG) potassium channel (human, UniProt Q12809)
Assay: primary screen, population patch clamp on CHO cells stably expressing hERG
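Note: peak tail current of the secondary pulse compared with the same well before compound.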

Chain of human ether-à-go-go-related gene (hERG) potassium channel (Q12809 whole entry, looked up): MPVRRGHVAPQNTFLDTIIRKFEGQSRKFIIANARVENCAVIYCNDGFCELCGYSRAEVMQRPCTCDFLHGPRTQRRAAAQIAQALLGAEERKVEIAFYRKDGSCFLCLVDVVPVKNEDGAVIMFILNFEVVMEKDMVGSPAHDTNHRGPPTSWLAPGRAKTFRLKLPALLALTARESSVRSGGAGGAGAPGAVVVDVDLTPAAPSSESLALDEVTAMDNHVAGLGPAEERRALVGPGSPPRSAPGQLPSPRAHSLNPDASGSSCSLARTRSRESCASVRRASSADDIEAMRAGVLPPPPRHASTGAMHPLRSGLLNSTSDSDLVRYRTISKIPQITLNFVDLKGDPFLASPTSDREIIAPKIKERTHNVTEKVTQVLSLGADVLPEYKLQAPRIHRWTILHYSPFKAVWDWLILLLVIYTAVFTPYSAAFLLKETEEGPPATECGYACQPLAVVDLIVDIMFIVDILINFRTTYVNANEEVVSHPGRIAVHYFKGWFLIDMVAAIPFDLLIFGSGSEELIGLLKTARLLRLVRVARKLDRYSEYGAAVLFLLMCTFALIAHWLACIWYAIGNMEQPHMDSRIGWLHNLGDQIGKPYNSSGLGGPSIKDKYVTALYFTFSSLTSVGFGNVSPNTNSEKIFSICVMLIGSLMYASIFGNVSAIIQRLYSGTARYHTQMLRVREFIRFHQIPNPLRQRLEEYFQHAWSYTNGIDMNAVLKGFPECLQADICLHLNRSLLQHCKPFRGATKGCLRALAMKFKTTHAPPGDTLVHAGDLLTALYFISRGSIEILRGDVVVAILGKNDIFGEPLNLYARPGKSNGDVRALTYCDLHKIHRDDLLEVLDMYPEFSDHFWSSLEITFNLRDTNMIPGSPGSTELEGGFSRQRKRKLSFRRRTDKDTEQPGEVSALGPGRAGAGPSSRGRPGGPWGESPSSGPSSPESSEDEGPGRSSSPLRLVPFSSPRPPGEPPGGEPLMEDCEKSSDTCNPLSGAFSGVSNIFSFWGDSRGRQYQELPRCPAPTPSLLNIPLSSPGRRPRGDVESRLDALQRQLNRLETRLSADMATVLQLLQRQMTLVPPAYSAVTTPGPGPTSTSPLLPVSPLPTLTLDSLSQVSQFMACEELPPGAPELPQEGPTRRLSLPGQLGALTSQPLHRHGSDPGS

Structure (SMILES)	hERG current change (%, negative = inhibition) at 10uM [%]
COC(=O)c1cn(CC(=O)NCc2cccs2)c2ccccc12	7.93
CSc1ccc(NC(=O)c2cccnc2)cc1C#N	6.39
O=C(Cc1ccccc1)NN1C(=O)C2C3C=CC(C3)C2C1=O (stereo not shown)	12.4
CN1CCN(C(=O)C2CCN(c3ncc(C(F)(F)F)cc3Cl)CC2)CC1	-11.4
O=[N+]([O-])c1ccc(Cl)c(S(=O)(=O)Nc2ccc(-c3ccc(N4CCCC4)nn3)cc2)c1	-4.5
O=C(Cn1cnc2cc([N+](=O)[O-])ccc2c1=O)Nc1cccc(S(=O)(=O)N2CCOCC2)c1	-33.2
CCCC(C)C(=O)Nc1ccc(S(=O)(=O)N2CCCC2)cc1 (stereo not shown)	8.89
CN(CCC1CCOCC1)C(=O)CC1C(=O)NCCN1CC1CCCCC1 (stereo not shown)	-0.614
COc1ccc(CN(CC2CCCO2)S(=O)(=O)c2ccc(-n3cnnn3)c(OC)c2)cc1 (stereo not shown)	-44
CSCCC(NS(=O)(=O)c1ccccc1F)C(=O)NC(C)c1ccccc1 (stereo not shown)	13.8
COc1ccc(/C=C2\N=C(SC)N(C)C2=O)cc1	-13.7
CC1N(C)c2cc(NC(=O)c3ccco3)ccc2C1(C)C (stereo not shown)	-13.9
Cc1ccc(-n2cnc(N)c2C(=O)c2cccc([N+](=O)[O-])c2)cc1	-28
CC(C)(C)c1ccc(Oc2ccc(NC(=O)c3cccs3)cn2)cc1	7.09
COc1cc(/C=N/NC(=S)NCCN2CCOCC2)ccc1O	4.92
Cc1cc(C)nc(N2CCCC(C(=O)NC3CCCC3)C2)n1 (stereo not shown)	-6.97
COc1ccc(CNC(=O)CN2C(=O)COc3ccc(S(=O)(=O)N4CCOCC4)cc32)cc1	8.85
O=C(COc1ccc(Cl)cc1Cl)Nc1cccnc1	14.5
Cc1ccccc1C(=O)N=c1ccn(-c2nc3ccccc3nc2NS(=O)(=O)c2ccccc2)cc1	21.9
Cc1ccc(/C(O)=C2/C(=O)C(=O)N(Cc3ccco3)C2c2cccs2)cc1 (stereo not shown)	-8.53
CN(C)S(=O)(=O)c1cccc(-n2sc3ccccc3c2=O)c1	4.27
O=C(O)CSCc1cn2cc(Cl)ccc2n1	0.861

Structure (SMILES)	hERG current change (%, negative = inhibition) at 10uM [%]
Cc1nc2ccc(S(=O)(=O)Nc3cccc(-c4nc5cccnc5s4)c3C)cc2s1	-10.8
O=C(NC1CCC(NC(=O)C(F)(F)C(F)F)CC1)C(F)(F)C(F)F (stereo not shown)	0.0363
CCc1onc(C)c1C(=O)O	13.3
Cc1ccc(NC(=O)CSCC(=O)Nc2ccccc2N2CCCC2)cc1	-13.6
Cn1c(CC(=O)Nc2ccccc2)nnc1SCC(=O)NC1CCCC1	17.8
CN(c1ccccc1)S(=O)(=O)c1nnc(NC(=O)C2CCCCC2)s1	2.6
C#CCOc1ccccc1/C=C1/C(=O)ON=C1C	16.4
Cc1onc(-c2ccccc2Cl)c1C(=O)O/N=C(\N)c1ccccc1	16
CCNC(=O)CCn1nc(-c2ccc(C)cc2)c2ccccc2c1=O	-10.6
CCOc1ccc(C(=O)N2CCC3(CC2)NCCc2[nH]cnc23)cc1OCC	22.6
Cc1cc(C)cc(C(=O)NC2C(=O)N3C(C(=O)O)=C(CSc4nnc(C)s4)CSC23)c1 (stereo not shown)	50.8
Cc1ccc(S(=O)(=O)N2CCN(CCO)CC2)cc1-c1nnc2c3ccccc3c(C)nn12	-13.9
COc1ccc(S(=O)(=O)N2CCN(c3ccccn3)CC2)cc1OC	-12
Cc1cc(OCC(=O)Nc2ccc3oc(=O)ccc3c2)ccc1Cl	13.4
COc1ccc(CNC(=O)C2CCN(C(=O)c3ccc(F)cc3)CC2)cc1OC	0.861
COc1ccc(Cc2nnc(NC(=O)c3ccc(Cl)c([N+](=O)[O-])c3)s2)cc1	15
COc1c(OC)c(O)c2c(=O)c(O)c(-c3ccccc3)oc2c1OC	9.46
Cc1nnc(-c2ccc(Oc3ccc(Cl)cc3)c([N+](=O)[O-])c2)o1	4.67
CCN(CC)S(=O)(=O)c1ccc(NC(=O)CN(c2ccc(OC)cc2OC)S(C)(=O)=O)cc1	-13
COc1ccc(C(=O)NCCN2C(=O)S/C(=C\c3cccnc3)C2=O)c(OC)c1OC	-9.86
CCN(CC)CCn1c(=S)[nH]c2cc(C(=O)N3CC(C)CC(C)C3)ccc2c1=O (stereo not shown)	-14.7
CCCCSc1nc(C)cc(C)c1S(=O)(=O)c1ccccc1C	13.5

Structure (SMILES)	hERG current change (%, negative = inhibition) at 10uM [%]
CC(C)C[C@H](NC(=O)c1nc[nH]c1C(=O)N1CCC(C)CC1)C(=O)OC(C)(C)C	-0.866
O=C(N/N=C/c1ccccc1[N+](=O)[O-])c1cccs1	5.65
CC1=NN(c2ccccc2)C(=O)/C1=C/c1cc2cc(C)ccc2nc1N1CCCCC1	7.32
Cc1cc(N(CCCl)CCCl)ccc1/C=N/NC(=O)c1ccco1	-14.1
CN(C(=O)COc1ccc(S(=O)(=O)N2CCOCC2)cc1[N+](=O)[O-])C1CCS(=O)(=O)C1 (stereo not shown)	17.5
Nc1c(-c2ccccc2)cnc2c(-c3ccccc3)cnn12	9.28
CCOCc1nnc(NC(=O)c2cccc(OC)c2)s1	11.7
CC(C)NC(=O)c1sc2nc(-c3cccs3)cc(-c3cccs3)c2c1N	-9.32
O=S(=O)(N/N=C/c1cn(Cc2ccccc2)c2ccccc12)c1ccccc1	4.29
CCCCCCCCCC(=O)N1c2ccccc2NC(=O)C1CC(=O)Nc1ccc(C(=O)O)cc1 (stereo not shown)	6.95
COc1ccc(CC(=O)NCCN2CCOCC2)cc1	18.1
CC(=O)n1nc(-c2ccccc2)nc1NCc1ccc(N(C)C)cc1	-0.294
CCc1nnc(NC(=O)c2c(-c3ccccc3)noc2C)s1	10.2
Cn1c(N)c(C(=O)CSc2nc3ccccc3c(=O)n2Cc2ccccc2)c(=O)n(C)c1=O	6.03
CN1CCN(c2ccc([N+](=O)[O-])c(Sc3ccccn3)c2)CC1	-15.7
O=C(NCc1ccccc1)/C(=C/c1ccccc1)NC(=O)c1ccco1	-24.6
COC(=O)\C(C(C)=O)=C(/C=C/C=C/C=C/N(C)C)N(C)C	-1.84
CS(=O)(=O)N1CCN(c2nnc(-c3ccccc3)c3ccccc23)CC1	-21
Cc1cccc(NS(=O)(=O)c2ccc(-c3cnc(C4CC4)o3)cc2)c1	6.28
CCOC(=O)C(NC(=O)N(C)C)(Nc1sc(C)c(CC)c1C#N)C(F)(F)F (stereo not shown)	-3.54
COc1ccc(C(=O)Nc2cc(Cl)ccc2OC(=O)c2ccc(OC)cc2)cc1	4.19
Fc1ccc(-n2nnnc2-c2ccccc2Cl)cc1	8.64

Structure (SMILES)	hERG current change (%, negative = inhibition) at 10uM [%]
O=C(N1CCOCC1)N1CCC(n2nnc3cc(F)ccc32)CC1	-7.65
Cc1cccc(C)c1OCC(=O)NCc1nnc(SCC(=O)NC2CCCCC2C)n1C (stereo not shown)	-6.2
CCCCSc1oc(-c2ccco2)nc1S(=O)(=O)c1ccccc1	14.4
CCCN(CCC)C(C)C(=O)NCC1(c2ccccc2)CCCC1.Cl (stereo not shown)	-15.3
COC(=O)c1ccccc1NC(=O)Cn1c(=O)oc2ccc(Cl)cc21	1.53
c1ccc(-c2nnc(-c3ccccc3)o2)cc1	-9.27
COc1ccccc1-n1c(C)nnc1SCC(=O)NCc1ccccc1	11.5
CCCCOc1ccccc1C(=O)N(Cc1ccco1)C1CCS(=O)(=O)C1 (stereo not shown)	6.52
CCn1c(=O)c2c(nc3n2CC(C)CN3CCc2ccccc2)n(C)c1=O (stereo not shown)	-72.6
Cc1ccc(CNC(=O)CS(=O)(=O)Cc2nc(-c3ccccc3F)oc2C)cc1	14.5
C=C(c1ccccc1O)n1ccnc1	27.8
C(=N\n1cnnc1)/c1ccccn1	-8.04
COc1c(Cl)cc(Cl)cc1/C=C/C(=O)c1ccc(NC(=O)c2cccs2)cc1	-1.04
COCCN(CCOC)Cc1c(C)[nH]c2c(C)c(C)ccc2c1=O	-9
Cc1ccc(O)c(C2=Nc3ccccc3C2(C)C)c1	-5.35
CCCCNS(=O)(=O)C1CCS(=O)(=O)C1 (stereo not shown)	17
Cc1ccc2cccc(Oc3ncnc4scc(-c5ccc(Cl)cc5)c34)c2n1	3.87
CCN1CCN(CC(=O)Nc2ccccc2)C(=O)C1=O	10.9
COC(=O)c1cc(C(=O)NCc2ccccc2)c(=O)[nH]c1C	-7.21
Cc1cc(C)cc(OCC(=O)N2N=C(C(F)(F)F)CC2(O)C(C)(C)C)c1 (stereo not shown)	3.64
O=C(Cn1ncc(Cl)c(Cl)c1=O)N1CCOCC1	15.2
CCOC(=O)c1c(CN2CCCCC2)n(C)c2cc(Br)c(O)cc12	-68.2
